Results on 24 compounds are retold here after article PMC4336329 (PLoS ONE, 2015).

Structures are written as SMILES. Out of some 310,000 compounds screened, about 14,000 (4.5%) showed an effect of 50% or more. Effects have a minus sign here. The list shows a part of the results.
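Note: peak tail current of the secondary pulse compared with the same well before compound.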

The assay deals with human ether-à-go-go-related gene (hERG) potassium channel (human, UniProt Q12809). Kind of assay: primary screen, population patch clamp on CHO cells stably expressing hERG.
human ether-à-go-go-related gene (hERG) potassium channel, sequence (Q12809 whole entry, looked up): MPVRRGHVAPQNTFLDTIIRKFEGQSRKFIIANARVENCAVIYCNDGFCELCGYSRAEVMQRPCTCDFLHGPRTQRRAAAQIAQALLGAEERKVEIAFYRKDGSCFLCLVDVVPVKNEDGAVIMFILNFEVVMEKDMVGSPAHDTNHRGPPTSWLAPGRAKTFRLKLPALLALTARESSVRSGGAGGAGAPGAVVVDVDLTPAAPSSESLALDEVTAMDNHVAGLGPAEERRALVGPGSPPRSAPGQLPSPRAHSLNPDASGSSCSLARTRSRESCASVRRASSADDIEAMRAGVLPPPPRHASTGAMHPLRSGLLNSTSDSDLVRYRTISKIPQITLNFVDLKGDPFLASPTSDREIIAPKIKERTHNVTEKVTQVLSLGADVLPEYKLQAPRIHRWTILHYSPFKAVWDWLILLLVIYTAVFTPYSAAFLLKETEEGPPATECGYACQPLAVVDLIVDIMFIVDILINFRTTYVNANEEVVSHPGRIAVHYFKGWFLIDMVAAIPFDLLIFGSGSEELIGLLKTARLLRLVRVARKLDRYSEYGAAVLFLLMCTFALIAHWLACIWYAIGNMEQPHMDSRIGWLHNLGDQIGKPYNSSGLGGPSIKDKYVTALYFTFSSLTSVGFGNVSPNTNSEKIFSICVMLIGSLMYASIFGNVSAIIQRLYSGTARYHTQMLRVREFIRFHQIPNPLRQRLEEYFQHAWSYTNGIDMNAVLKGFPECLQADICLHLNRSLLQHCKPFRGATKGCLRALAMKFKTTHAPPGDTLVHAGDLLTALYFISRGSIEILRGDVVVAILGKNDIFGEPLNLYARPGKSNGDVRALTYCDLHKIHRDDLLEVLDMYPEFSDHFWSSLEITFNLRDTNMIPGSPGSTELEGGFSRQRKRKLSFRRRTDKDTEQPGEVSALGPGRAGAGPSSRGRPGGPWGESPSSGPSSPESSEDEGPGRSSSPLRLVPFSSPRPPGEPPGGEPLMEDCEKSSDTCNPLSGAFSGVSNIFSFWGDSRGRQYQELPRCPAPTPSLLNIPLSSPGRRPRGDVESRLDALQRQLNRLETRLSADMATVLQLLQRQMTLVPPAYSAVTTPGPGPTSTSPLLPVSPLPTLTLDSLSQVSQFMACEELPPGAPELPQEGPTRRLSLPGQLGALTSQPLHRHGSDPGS
With `Cc1cc(=O)oc2c1ccc1oc(/C(=N/O)c3ccccc3)c(C)c12`, the “hERG current change (%, negative = inhibition) at 10uM” value worked out at 16.5%.

Consider `CC(=O)Nc1ccc(NC(=O)CSc2nccn2Cc2ccccc2)cc1`, for which the “hERG current change (%, negative = inhibition) at 10uM” value was determined as 3.96%.

For the compound `COC(=O)CSc1nnc(CNC(=O)Cc2ccccc2)n1-c1ccccc1OC`, the “hERG current change (%, negative = inhibition) at 10uM” value is reported as -4.41%.

As to `COc1ccc(N2C(=O)N3[C@H](c4ccc(Br)cc4)[C@@H]4C(=O)N(C(C)(C)C)C(=O)[C@@H]4[C@]3(Cc3ccccc3)C2=O)cc1`, the “hERG current change (%, negative = inhibition) at 10uM” value is 5.86%.

In the case of `COc1ccc(/C=N/NC(=O)c2ccc(CN3c4cccc5cccc(c45)S3(=O)=O)cc2)cc1`, the “hERG current change (%, negative = inhibition) at 10uM” value turned out to be 4.03%.

With `O=C(NN1CCOCC1)c1ccc(Br)s1`, the “hERG current change (%, negative = inhibition) at 10uM” value was 36%.

Take `O=C(CCc1ccccn1)N1CCCC(CNS(=O)(=O)c2cccs2)C1` (stereo not drawn): the “hERG current change (%, negative = inhibition) at 10uM” value is recorded as 0.679%.

As to `OC1(c2ccc3c(c2)OCO3)CCN(Cc2ccccn2)CC1`, the “hERG current change (%, negative = inhibition) at 10uM” value is -6.96%.

For the compound `Cc1ccccc1S(=O)(=O)Cc1ccc(C(=O)N2CCN(c3ncccn3)CC2)o1`, the “hERG current change (%, negative = inhibition) at 10uM” value was -23.3%.

With `O=C(N/N=C/c1cccc(OCC(=O)N2CCCC2)c1)C(=O)Nc1ccccc1F`, the “hERG current change (%, negative = inhibition) at 10uM” value is -19.3%.

In the case of `Cc1cccc(NCC(=O)NNC(=S)Nc2ccccc2)c1`, the “hERG current change (%, negative = inhibition) at 10uM” value came to 17.8%.

Regarding `COCC(C)N=C1SCCN1Cc1ccccc1` (stereo not drawn), the “hERG current change (%, negative = inhibition) at 10uM” value came to 23.7%.

As to `CC(C)(C)C(=O)N(Cc1ccc(Cl)cc1)c1cnccn1`, the “hERG current change (%, negative = inhibition) at 10uM” value is recorded as 5.17%.

In the case of `CC(C(=O)c1c[nH]c2ccccc12)N1CCSCC1` (stereo not drawn), the “hERG current change (%, negative = inhibition) at 10uM” value is on record as -1.66%.

On to `CCOc1cc(C2Nc3cccc4cccc(c34)N2)ccc1O`, for which the “hERG current change (%, negative = inhibition) at 10uM” value worked out at 2.24%.

For `COc1cccc(C2c3[nH]c4ccccc4c3C[C@H]3C(=O)N(CCCOC(C)C)CC(=O)N23)c1` (stereo partly drawn), the “hERG current change (%, negative = inhibition) at 10uM” value was 24.4%.

In the case of `COc1cc2c(cc1OC)C(c1cc(OC)c(OC)cc1[N+](=O)[O-])N(C(C)=O)CC2` (stereo not drawn), the “hERG current change (%, negative = inhibition) at 10uM” value was determined as 26%.

Take `NNC(=O)c1cccc(COc2cccc(Br)c2)c1`: the “hERG current change (%, negative = inhibition) at 10uM” value is recorded as -5.93%.

Turning to `O=C(Nc1ccc2c(c1)OCO2)C1CCCN1C(=O)Nc1ccccc1` (stereo not drawn), the “hERG current change (%, negative = inhibition) at 10uM” value is listed as 2.04%.

As for `COc1ccc(NC(=O)C2Cc3ccccc3CN2C(=O)c2ccco2)cc1` (stereo not drawn), the “hERG current change (%, negative = inhibition) at 10uM” value is -30.4%.

As to `CNc1c(NS(=O)(=O)c2ccc(C3CCCCC3)cc2)c(=O)oc2ccccc12`, the “hERG current change (%, negative = inhibition) at 10uM” value was 21.3%.

As to `O=C(NC(=S)N1CCCc2ccccc21)c1ccc(Br)cc1`, the “hERG current change (%, negative = inhibition) at 10uM” value came to 14.2%.

Regarding `Nn1c(SCC(=O)NC2CCCCC2)nnc1-c1ccc(Cl)cc1`, the “hERG current change (%, negative = inhibition) at 10uM” value is given as -5.97%.

In the case of `CC[N+](CC)(CC#CCO)CC#Cc1ccccc1.[Br-]`, the “hERG current change (%, negative = inhibition) at 10uM” value worked out at 33.7%.
